# Assay results published in PubChem BioAssay AID2147 (National Center for Advancing Translational Sciences (NCATS), 2009).
# Values joined by “and” are separate entries in the source; they are usually repeats but may differ in a detail not shown here. Identical values can stand only once. In all, about 230,000 compounds went through this assay and about 3,600 (1.6%) were called active. The inconclusive results got no clear call from the source; some entries with a clear call stand among them for comparison. The call rests on the fitted dose curve; in most records, active means well fitted inhibition curve with a large enough effect (not every such curve was filed as active); inconclusive means small, poorly fitted or top-dose-only effect, or another doubt; inactive means no such curve, though single readings can be large or run the other way. Potencies of inconclusive entries are doubtful fits and often do not repeat.
# Biological target: Lysine-specific demethylase 4E (Homo sapiens) (UniProt B2RXH2)
# Assay: qHTS Assay for Inhibitors of Human Jumonji Domain Containing 2E (JMJD2E)
# Conditions: JMJD2E catalytic domain, FDH-coupled NADH fluorescence (FDH is formaldehyde dehydrogenase); series mostly up to 57.1 µM
# Further: nearly all actives have a fitted effect of over 50% in size.
# Potency means the concentration at half of the fitted maximal effect; tags describe the fitted curve by direction and shape.
# UniProt B2RXH2, sequence (B2RXH2 whole entry, looked up, the tested form may be a part): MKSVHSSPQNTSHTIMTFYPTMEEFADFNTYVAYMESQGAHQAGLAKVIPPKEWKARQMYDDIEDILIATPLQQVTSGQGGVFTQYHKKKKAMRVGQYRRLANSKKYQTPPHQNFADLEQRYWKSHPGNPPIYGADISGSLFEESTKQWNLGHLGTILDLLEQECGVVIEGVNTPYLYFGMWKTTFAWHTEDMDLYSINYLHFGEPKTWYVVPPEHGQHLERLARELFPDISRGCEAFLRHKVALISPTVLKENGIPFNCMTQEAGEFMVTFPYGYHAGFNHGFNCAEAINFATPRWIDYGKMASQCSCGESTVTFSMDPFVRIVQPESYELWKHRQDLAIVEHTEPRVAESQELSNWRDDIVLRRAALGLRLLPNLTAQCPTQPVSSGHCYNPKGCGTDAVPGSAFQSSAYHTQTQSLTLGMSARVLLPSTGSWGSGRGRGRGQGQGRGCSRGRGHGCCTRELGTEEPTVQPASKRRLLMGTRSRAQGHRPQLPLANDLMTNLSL
row,SMILES,Potency
1,Cc1cc(N/N=C/c2c(O)ccc3ccccc23)nc(-c2ccccc2O)n1,active: 14.1 µM
2,O=C(N/N=C/c1cccc(NC(=O)c2ccc(Cl)cc2)c1)c1ccc(O)cc1,inactive
3,O=C(O)C1C2C=CC(O2)C1C(=O)Nc1ccc(S(=O)(=O)Nc2ccccc2)cc1 (centres undefined),inactive
4,CCCN(CCC)CC(=O)Nc1cccc2c1OCO2,inactive
5,CCN(c1ccccc1)S(=O)(=O)c1cc(C(=O)Nc2ccc(F)c(F)c2)ccc1F,inactive
6,CCOC(=O)N1CCN(C(=O)CN(c2cccc(C)c2)S(=O)(=O)c2ccccc2)CC1,inactive
7,COc1ccc(-c2nn(-c3ccccc3)cc2N)cc1,"inconclusive: 31.6 µM [inhibitor, partial curve]"
8,COc1ccc(N2C3=C(C(=O)CC(C)(C)C3)C(c3cnn(C)c3)C3=C2CC(C)(C)CC3=O)cc1,"inconclusive: 25.1 µM [inhibitor, partial curve]"
9,CN(c1ccccc1)S(=O)(=O)c1cc(C(=O)Nc2nc3ccccc3[nH]2)ccc1Cl,"inconclusive: 35.5 µM [inhibitor, single point]"
10,O=C(NC(=S)Nc1nc(-c2ccccc2)cs1)c1cncc(Br)c1,inactive
11,O=C1CC(C(=O)Nc2ccc(O)c(C(=O)O)c2)C(c2ccccc2)O1 (centres undefined),"inconclusive: 31.6 µM [inhibitor, partial curve]"
12,CCOC(=O)c1cnn2c(C)cc(-c3ccc(F)cc3)nc12,"inconclusive: 31.6 µM [inhibitor, partial curve]"
13,COc1cc(/C=N/NC(=O)COc2c(C)cc([N+](=O)[O-])cc2C)ccc1OC(=O)c1ccccc1Br,inactive
14,O=C(CCC(=O)N1CCN(c2ccccn2)CC1)Nc1nnc(C(F)(F)F)s1,"inconclusive: 28.2 µM [inhibitor, partial curve]"
15,CC1=NOC(=O)/C1=C\c1ccc2c(c1)OCO2,"inconclusive: 35.5 µM [inhibitor, partial curve, poor fit]"
16,CCN(CC)CCCN1C=C2C(=O)C(C)(OC(=O)C3CCCC3)C(=O)C(c3ccccc3)=C2C=C1CCCC(=O)OC (centres undefined),"inconclusive: 22.4 µM [inhibitor, single point] and inconclusive: 3.16 µM [inhibitor, single point]"
17,COc1ccc(OCc2ccc(-c3nc4ccccc4c(=O)n3N)o2)cc1,"inconclusive: 39.8 µM [inhibitor, single point]"
18,Cc1nn2c(-c3ccncc3)ccnc2c1Br,inactive
19,Cc1ccc(N2CCN(c3ccc(NCc4nc5ccccc5n4C)cc3)CC2)cc1,"inconclusive: 17.8 µM [inhibitor, partial curve]"
20,COc1cc([N+](=O)[O-])cc(/C=N/NC(=O)Cn2nccc2C)c1O,active: 12.6 µM
21,CC(C)C(=O)NC(c1ccc([N+](=O)[O-])cc1)c1c(O)ccc2ccccc12 (centres undefined),inactive
22,CCOC(=O)c1sc2nc(CN3CCCCC3)nc(Cl)c2c1C,"inconclusive: 28.2 µM [inhibitor, partial curve]"
23,CCOc1ccc(Nc2oc(-c3ccc(Cl)cc3)nc2C#N)cc1,"inconclusive: 31.6 µM [inhibitor, single point]"

row,SMILES,Potency
1,NS(=O)(=O)c1ccc(N/N=C/c2cn(-c3ccccc3)nc2-c2cccs2)c([N+](=O)[O-])c1,inactive
2,Cc1cc2c(N=O)c(NO)ccc2[nH]1,active: 11.2 µM
3,COC(=O)C1=C(C)N(Cc2ccccc2)C(=O)N[C@H]1c1ccccc1,inactive
4,CCN(CC)S(=O)(=O)c1cccc2cc(C(=O)O)c(O)cc12,"inconclusive: 39.8 µM [inhibitor, single point]"
5,CN(C)c1ccc(-c2nnn(CC(=O)NCc3ccc4c(c3)OCO4)n2)cc1,"inconclusive: 25.1 µM [inhibitor, single point]"
6,CCC1(C)Cc2ccccc2-c2nc(NCCCO)n(C)c(=O)c21 (centres undefined),"inconclusive: 28.2 µM [inhibitor, partial curve]"
7,Cc1cc(C)cc(C(=O)OCC(=O)NCc2cccs2)c1,inactive
8,CC1(OC(=O)c2ccc(Cl)nc2)C(=O)C=C2C=C3CCCN3C=C2C1=O (centres undefined),active: 5.62 µM
9,CCOC(=O)c1cc2c(ccn2C)n1CC(=O)N(C)C,"inconclusive: 20 µM [inhibitor, partial curve]"
10,Cc1ccccc1NC(=O)CSc1ccc(-c2ccco2)nn1,"inconclusive: 39.8 µM [inhibitor, single point]"
11,CCOc1ccc(N(C(=O)CNS(=O)(=O)c2ccccc2)C(CC)C(=O)NCc2ccco2)cc1 (centres undefined),"inconclusive: 28.2 µM [inhibitor, single point]"
12,CCC1(C)Cc2ccccc2-c2nc(NCCO)[nH]c(=O)c21 (centres undefined),"inconclusive: 31.6 µM [inhibitor, partial curve]"
13,Cc1ccsc1C(=O)N1CCCC(CCC(=O)N2CCN(c3ccccn3)CC2)C1 (centres undefined),"inconclusive: 28.2 µM [inhibitor, single point]"
14,CCOc1ccc(/C(O)=C/C(=O)C(=O)Nc2ccc(S(=O)(=O)NC(C)=O)cc2)cc1,"inconclusive: 31.6 µM [inhibitor, single point]"
15,CCOC(=O)C(C)Oc1cccc2c(=O)n(CC(=O)NCc3ccccc3)ccc12 (centres undefined),"inconclusive: 35.5 µM [inhibitor, single point]"
16,CCOc1nc(-c2ccccc2)ccc1-c1noc(-c2ccco2)n1,"inconclusive: 28.2 µM [inhibitor, partial curve]"
17,NC(=O)c1ccccc1NC(=O)Nc1cccc(Cl)c1Cl,"inconclusive: 31.6 µM [inhibitor, partial curve]"
18,Cc1ccc(NC(=O)CSCC(=O)Nc2ncc3c(n2)CC(c2ccco2)CC3=O)cc1 (centres undefined),inactive
19,CC1CC(C)CN(C(=O)Nc2ccc(Br)cc2)C1 (centres undefined),"inconclusive: 0.0355 µM [inhibitor, full curve, poor fit]"
20,Cc1ccc(N=Nc2ccc(C)cc2NC(=O)Nc2ccccc2F)cc1,inactive
21,N#CC1=C(N)N(c2ccccc2)C2=C(C(=O)CCC2)C1c1ccsc1 (centres undefined),"inconclusive: 39.8 µM [inhibitor, single point]"
22,O=C(O)c1ccc(C(=O)C(=O)c2ccccc2)cc1,inactive
23,O=C(CSc1nnc2ccc(-c3ccc(F)cc3)nn12)N1CCCC1,"inconclusive: 35.5 µM [inhibitor, single point]"

row,SMILES,Potency
1,CCOC(=O)/C(C#N)=C1/C(=O)N(Cc2ccccc2)c2ccccc21,inactive
2,C/C(=N\NC(=O)C1COc2ccccc2O1)c1ccc(N2CCOCC2)cc1 (centres undefined),"inconclusive: 22.4 µM [inhibitor, partial curve]"
3,O=C1S/C(=C\c2ccc(N3CCOCC3)o2)C(=O)N1c1ccccc1,"inconclusive: 22.4 µM [inhibitor, single point]"
4,COc1cc(Nc2ncnc(N)n2)cc(OC)c1,inactive
5,COc1ccc(NC(=O)CSc2nnc(-c3ccccc3Cl)n2Cc2ccco2)c(OC)c1,inactive
6,CCOCCCNC(=O)c1cn(C)c(=O)c2cc(OC)c(OC)cc12,"inconclusive: 39.8 µM [inhibitor, single point]"
7,CC1CCc2sc(C(=O)Nc3ccc(C(N)=O)cc3)cc2C1 (centres undefined),"inconclusive: 31.6 µM [inhibitor, single point]"
8,CC(=O)NCCNc1nc(-c2ccccc2CN(C)C)nc2ccccc12,inactive
9,COc1ccc(NC(=O)CSc2nc(NS(=O)(=O)c3ccc(C)cc3)cc(=O)[nH]2)cc1,"inconclusive: 39.8 µM [inhibitor, single point]"
10,Cc1ccc(N(CC(=O)Nc2ccc(-c3nc4ccc(C)cc4s3)cc2)S(C)(=O)=O)cc1,"inconclusive: 12.6 µM [inhibitor, partial curve]"
11,C=CCn1c(NC(=O)c2ccc(C)cc2)c(C#N)sc1=N,"inconclusive: 35.5 µM [inhibitor, single point]"
12,CC(=O)Nc1nnc(CCS(=O)(=O)c2ccc(C)c(C)c2)s1,"inconclusive: 7.08 µM [inhibitor, single point]"
13,O=C(Oc1ccc(N(Cc2cccs2)C2=NS(=O)(=O)c3ccccc32)cc1)c1ccco1,"inconclusive: 35.5 µM [inhibitor, partial curve]"
14,O=C(/C=C/c1ccc(Cl)cc1)N(Cc1ccccc1)C1CCS(=O)(=O)C1 (centres undefined),inactive
15,CN(C)c1ccc(O)c2c1C[C@H]1C[C@H]3[C@@H](N(C)C)C(=O)C(C(N)=O)=C(O)[C@]3(O)C(=O)C1=C2O,"inconclusive: 6.31 µM [inhibitor, full curve]"
16,COC(=O)c1sc(N)c(C(=O)OC)c1COC(=O)CNS(=O)(=O)c1cccc(C#N)c1,"inconclusive: 35.5 µM [inhibitor, single point]"
17,Cc1cccc(-n2c(=S)[nH]c3sc4c(c3c2=O)CCc2ccccc2-4)c1,inactive
18,N#Cc1c(N)n(CCNC(=O)c2ccccc2)c2nc3ccccc3nc12,"inconclusive: 14.1 µM [inhibitor, partial curve]"
19,O=C1Nc2ccc(S(=O)(=O)N3CCOCC3)c3cccc1c23,"inconclusive: 35.5 µM [inhibitor, single point]"
20,CN(/N=C/c1cc([N+](=O)[O-])ccc1O)c1ccccc1,inactive
21,CC(=O)C(=Cc1ccc(O)cc1)C(C)=O,"inconclusive: 28.2 µM [inhibitor, single point]"
22,COc1ccc(CNc2ncnc3ccc(-c4ccccc4CN(C)C)cc23)c(OC)c1,"inconclusive: 14.1 µM [inhibitor, partial curve]"
23,CCCc1cc(=O)n(-c2nc3ccccc3s2)[nH]1,"inconclusive: 39.8 µM [inhibitor, single point]"
